According to patent US9359440B2, “Bispecific chimeric proteins comprising DARPins” (Samsung Electronics Co., Ltd., priority 2013, dated 2016):

Legend:
Conditions in all cases: ranking among huAbF46-H4-A1, -A2, -A3, -A5
c-Met [1] = target: T1, c-Met (Homo sapiens, UniProt P08581); assay: c-Met degradation degree by anti-c-Met antibodies; format: cell-based
Akt = Akt phosphorylation by anti-c-Met antibodies; format: cell-based
c-Met [2] = target: T1, c-Met; assay: Affinity for c-Met of anti-c-Met antibodies; format: binding

T1 sequence (P08581 25-1390): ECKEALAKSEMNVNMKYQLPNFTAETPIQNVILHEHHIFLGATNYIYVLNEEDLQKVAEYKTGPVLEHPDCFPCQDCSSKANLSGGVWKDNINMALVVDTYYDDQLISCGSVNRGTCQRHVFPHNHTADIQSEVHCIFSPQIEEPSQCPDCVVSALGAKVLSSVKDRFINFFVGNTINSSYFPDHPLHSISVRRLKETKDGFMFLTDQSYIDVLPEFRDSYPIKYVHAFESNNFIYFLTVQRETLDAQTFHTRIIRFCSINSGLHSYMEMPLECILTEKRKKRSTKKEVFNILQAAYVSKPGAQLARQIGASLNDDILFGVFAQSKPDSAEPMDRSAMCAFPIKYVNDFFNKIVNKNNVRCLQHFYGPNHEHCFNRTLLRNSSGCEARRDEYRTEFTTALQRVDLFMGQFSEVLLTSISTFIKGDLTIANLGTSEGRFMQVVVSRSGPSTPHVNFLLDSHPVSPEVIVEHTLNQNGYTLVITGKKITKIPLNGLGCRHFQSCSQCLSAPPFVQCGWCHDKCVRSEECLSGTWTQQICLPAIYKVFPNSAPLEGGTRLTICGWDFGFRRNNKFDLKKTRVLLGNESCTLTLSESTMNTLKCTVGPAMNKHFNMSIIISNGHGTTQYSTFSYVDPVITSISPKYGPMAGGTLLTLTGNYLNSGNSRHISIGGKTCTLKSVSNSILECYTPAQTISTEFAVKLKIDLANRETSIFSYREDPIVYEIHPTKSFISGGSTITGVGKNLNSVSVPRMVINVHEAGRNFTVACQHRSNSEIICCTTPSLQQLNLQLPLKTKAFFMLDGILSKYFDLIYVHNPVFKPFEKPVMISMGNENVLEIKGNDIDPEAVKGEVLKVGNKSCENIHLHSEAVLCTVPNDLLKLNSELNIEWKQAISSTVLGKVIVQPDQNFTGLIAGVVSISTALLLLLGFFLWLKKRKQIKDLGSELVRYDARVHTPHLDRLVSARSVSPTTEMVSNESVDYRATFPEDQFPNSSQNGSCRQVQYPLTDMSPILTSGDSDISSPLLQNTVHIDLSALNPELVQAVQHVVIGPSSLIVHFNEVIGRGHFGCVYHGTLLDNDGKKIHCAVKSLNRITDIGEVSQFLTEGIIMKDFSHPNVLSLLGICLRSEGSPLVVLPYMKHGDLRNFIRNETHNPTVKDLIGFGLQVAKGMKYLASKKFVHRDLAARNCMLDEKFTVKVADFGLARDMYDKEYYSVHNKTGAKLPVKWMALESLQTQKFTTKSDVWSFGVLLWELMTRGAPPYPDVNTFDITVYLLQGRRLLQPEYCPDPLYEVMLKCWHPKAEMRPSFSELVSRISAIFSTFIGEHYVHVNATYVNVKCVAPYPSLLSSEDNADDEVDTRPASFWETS

c-Met degradation degree among the four affinity-matured antibodies (c-Met [1]): lowest
affinity for c-Met among the four affinity-matured antibodies (c-Met [2]): highest
B1: huAbF46-H4-A1: affinity-matured humanized anti-c-Met antibody, L3-1 origin (antibody)
heavy: EVQLVESGGGLVQPGGSLRLSCAASGFTFTDYYMSWVRQAPGKGLEWLGFIRNKANGYTTEYSASVKGRFTISRDNSKNTLYLQMNSLRAEDTAVYYCARDNWFAYWGQGTLVTVSSASTKGPSVFPLAPSSKSTSGGTAALGCLVKDYFPEPVTVSWNSGALTSGVHTFPAVLQSSGLYSLSSVVTVPSSSLGTQTYICNVNHKPSNTKVDKKVEPKSCDCH[letters of human IgG1 Fc omitted]
light: DIQMTQSPSSLSASVGDRVTITCKSSQSLLASGNQNNYLAWHQQKPGKAPKMLIIWASTRVSGVPSRFSGSGSGTDFTLTISSLQPEDFATYYCQQSYSRPYTFGQGTKVEIKRTVAAPSVFIFPPSDEQLKSGTASVVCLLNNFYPREAKVQWKVDNALQSGNSQESVTEQDSKDSTYSLSSTLTLSKADYEKHKVYACEVTHQGLSSPVTKSFNRGEC
Akt phosphorylation among the four affinity-matured antibodies (Akt): lowest
